# Results as given in PMC4336329 (PLoS ONE, 2015).
# Hit rate of the full screen: of about 310,000 compounds, about 14,000 (4.5%) showed an effect of 50% or more. Effects have a minus sign here. Some of the results follow.
# Target: human ether-à-go-go-related gene (hERG) potassium channel (human, UniProt Q12809)
# Assay: primary screen, population patch clamp on CHO cells stably expressing hERG
# 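Note: peak tail current of the secondary pulse compared with the same well before compound.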
# Sequence of human ether-à-go-go-related gene (hERG) potassium channel (Q12809 whole entry, looked up): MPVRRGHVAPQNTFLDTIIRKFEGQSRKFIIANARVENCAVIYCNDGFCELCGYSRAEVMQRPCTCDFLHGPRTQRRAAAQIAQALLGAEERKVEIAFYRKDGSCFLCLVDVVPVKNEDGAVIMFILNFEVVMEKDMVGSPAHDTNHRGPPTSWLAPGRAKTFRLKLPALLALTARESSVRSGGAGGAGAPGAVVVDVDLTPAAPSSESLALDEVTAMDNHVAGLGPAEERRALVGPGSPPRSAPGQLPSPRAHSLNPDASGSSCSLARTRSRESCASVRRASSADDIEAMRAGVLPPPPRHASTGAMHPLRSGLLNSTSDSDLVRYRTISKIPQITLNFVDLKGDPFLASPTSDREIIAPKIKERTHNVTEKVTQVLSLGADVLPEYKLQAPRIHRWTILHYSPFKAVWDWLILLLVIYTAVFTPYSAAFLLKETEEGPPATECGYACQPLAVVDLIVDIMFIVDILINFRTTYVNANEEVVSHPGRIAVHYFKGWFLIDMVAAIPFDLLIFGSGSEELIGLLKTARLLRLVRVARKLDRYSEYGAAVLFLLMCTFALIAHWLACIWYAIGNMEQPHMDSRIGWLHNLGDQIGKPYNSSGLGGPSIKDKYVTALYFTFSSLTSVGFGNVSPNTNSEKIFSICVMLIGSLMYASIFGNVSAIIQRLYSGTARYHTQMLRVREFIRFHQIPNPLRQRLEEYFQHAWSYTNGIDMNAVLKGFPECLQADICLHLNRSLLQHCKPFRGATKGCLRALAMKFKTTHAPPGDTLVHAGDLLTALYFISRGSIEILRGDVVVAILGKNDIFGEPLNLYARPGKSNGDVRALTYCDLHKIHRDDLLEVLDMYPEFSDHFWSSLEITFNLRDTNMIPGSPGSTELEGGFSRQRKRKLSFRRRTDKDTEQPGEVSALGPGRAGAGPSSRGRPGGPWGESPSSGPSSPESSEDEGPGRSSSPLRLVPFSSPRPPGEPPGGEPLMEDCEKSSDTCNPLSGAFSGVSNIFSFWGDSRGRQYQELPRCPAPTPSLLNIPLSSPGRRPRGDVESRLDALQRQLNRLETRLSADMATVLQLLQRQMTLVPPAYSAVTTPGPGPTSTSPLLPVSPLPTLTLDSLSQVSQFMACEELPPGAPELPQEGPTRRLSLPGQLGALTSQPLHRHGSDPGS
row,Compound,"hERG current change (%, negative = inhibition) at 10uM"
1,CC(C)c1nc(Cl)c(C#N)c2c1CCC2,6.65%
2,Cl.N=c1c2c(n(Cc3ccc([N+](=O)[O-])cc3)c3c1CCC3)CCCC2,-14.4%
3,COc1ccc(N2CC(C(=O)N/N=C/c3cccs3)CC2=O)cc1 (stereo not shown),-5.53%
4,CC1CCCCN1C(=O)CCNS(=O)(=O)c1ccc2c(c1)c(=O)n(C)c(=O)n2C (stereo not shown),-16.9%
5,CN1CCN(C(=O)/C=C/c2ccc([N+](=O)[O-])cc2)CC1,-67%
6,Cc1ccc(NS(=O)(=O)c2ccc(CCC(=O)NC3CC3)cc2)cc1,0.354%
7,CC(NC(=O)c1ccc(=O)oc1)c1ccccc1 (stereo not shown),-2.11%
8,COc1ccc(OC)c(CCNC(=O)C(=O)Nc2ccc3nc4n(c(=O)c3c2)CCCCC4)c1,-19.1%
9,Cc1cccc(C(=O)NCC(=O)OCC(=O)c2ccc(Cl)s2)c1,-15.5%
10,COc1ccc(N(CC(=O)NCc2ccco2)C(=O)CCC(=O)Nc2nccs2)c(OC)c1,-18.2%
11,CC(C)c1ccc(NC(=O)c2cccc(Br)c2)cc1,20.6%
12,COc1cc2[nH]c(=O)n(Cc3ccc(C(=O)N4CCC(N5CCCCC5)CC4)cc3)c(=O)c2cc1OC,12.3%
13,Cc1ccc(C)c(OCCN2CCOCC2)c1,11.6%
14,COc1cccc(-c2nn(-c3ccc(C)cc3)cc2C(=O)NCC(c2cccs2)N2CCOCC2)c1 (stereo not shown),5.13%
15,CC(=O)c1ccc(OCCCC(=O)NC2CCCc3ccccc32)cc1 (stereo not shown),-13.8%
16,CC(C)(C)c1ccc(-c2c(C#N)c(N)nc3c2CCCC3)s1,-0.863%
17,O=C(O)c1ccccc1CSc1nc2ccccc2s1,20.1%
18,CCCN1C(=O)SC(CC(=O)Nc2ccccc2C)C1=O (stereo not shown),2.91%
19,COc1ccc(CCNc2cc(N3CCN(C(=O)c4ccccc4F)CC3)ccc2[N+](=O)[O-])cc1OC,16.3%
20,CCOc1ccccc1/C=N/NC(=O)CSc1n[nH]c(=O)[nH]c1=O,27.5%
21,COc1ccc2nc(NC(=O)c3ccc(NC(=O)C4CCCO4)cc3)sc2c1 (stereo not shown),12.5%
22,CN1CCCN(C(=O)c2ccc(Cl)s2)CC1,-93.3%
23,CCOC(=O)C1(Cc2cccc(F)c2)CCN(Cc2cnn(CC)c2C)CC1,-16.6%
24,CCCN1C(=O)c2[nH]nc(-c3cc(Cl)c(C)cc3O)c2C1c1ccc(O)c(OC)c1 (stereo not shown),3.51%
25,COC(=O)c1c(C)[nH]c(C(=O)OCC(=O)NC(C)(C)C)c1C,20.2%
26,CC(=O)OCCc1c(C)nc2nc[nH]n2c1=O,16.3%
27,CNS(=O)(=O)c1ccc(OC)c(-c2nnc3c4ccccc4c(C)nn23)c1.Cl,7.8%
28,CCOC(=O)/C(C#N)=C/c1c(N2CCN(c3ccccc3)CC2)nc2c(C)cccn2c1=O,5.87%

row,Compound,"hERG current change (%, negative = inhibition) at 10uM"
1,O=c1c2ccccc2nnn1CSc1nnc2sc3ccccc3n12,-5.58%
2,CCOc1ccc(/C(CCC(=O)O)=N/NC(=S)NC(C)C)cc1,14.1%
3,CN(C(=O)COc1cc(=O)n(C)c2ccccc12)c1ccc(Br)cc1,-11.2%
4,Cc1ccc(/C=N/NC(=O)c2ccc(NC(=O)c3ccccc3Cl)cc2)o1,4.34%
5,COc1ccc(C2=NS(=O)(=O)N(C)C(C(=O)N3CCC4(CC3)OCCO4)=C2)cc1OC,14.6%
6,Cc1ccc2c(c1)c1nnc(SCC(=O)N3CCN(c4ccc(F)cc4)CC3)nc1n2CC(=O)O,-63.1%
7,N#C/C(=C/c1ccc(N2CCOCC2)o1)C(=O)N1CCOCC1,17.5%
8,COc1ccccc1NC(=O)C1CCCN(S(=O)(=O)c2ccc(-n3cnnn3)cc2)C1 (stereo not shown),-46.8%
9,CCN(CC)c1ccc(/C=N/NC(=O)c2cccc(N3CCCC3=O)c2)cc1,-11.9%
10,Cc1cc2nc(-c3cccc(NC(=O)c4ccc(Br)o4)c3C)oc2cc1C,5.67%
11,O=C(Nc1cc(S(=O)(=O)N2CCOCC2)ccc1Cl)C1CCC1,6.14%
12,Cc1ccccc1CS(=O)(=O)Cc1ccc(C(=O)NC2CCCCC2)o1,-11.2%
13,COc1ccc(NC(=O)COc2ccc(-c3nn(C)c(=O)c4ccccc34)cc2)cc1,18.2%
14,Cc1ccc(OCC(=O)Nc2ccc(N3CCN(S(C)(=O)=O)CC3)cc2)cc1C,12.6%
15,O=C(CNC(=O)c1cc(S(=O)(=O)N2CCCCC2)ccc1N1CCOCC1)Nc1ccc(F)c(F)c1,23.7%
16,CCCC(O)(c1ccc(Br)cc1)C(CN1CCOCC1)c1ccc(Cl)cc1.Cl (stereo not shown),7.96%
17,CC(C)C(=O)Nc1cccc(C(=O)Nc2ccc(S(=O)(=O)N3CCOCC3)cc2)c1,-9.39%
18,CCC(C)c1ccc(NC(=S)N2CCCC2)cc1 (stereo not shown),1.86%
19,COc1ccc(CN2CCC(C(=O)Nc3ccc(Oc4cccnc4)cc3)CC2)cc1,-69.3%
20,O=C(CSc1nccn1-c1ccccc1)NO,7.96%
21,CC1CCN(C(=O)Cn2c(=O)n(Cc3ccco3)c(=O)c3sccc32)CC1,-7.77%
22,O=C(Cc1ccccc1)NCCC1=CCCCC1,9.32%
23,CCC(=O)c1ccc(OCC(=O)OC(C)C(=O)N2CCc3ccccc32)cc1 (stereo not shown),5.94%
24,NNC(=O)CNC(=O)C12CC3CC(CC(C3)C1)C2,17.3%
25,O=C(Cn1cnc2c(nnn2Cc2ccccc2F)c1=O)N1CCN(c2ccccc2)CC1,-31.2%
26,CC(C)c1onc(C(=O)N2CCOCC2)c1[N+](=O)[O-],7.71%
27,O=C(NC1CCCCC1)C(c1ccncc1)N(Cc1ccc2c(c1)OCO2)C(=O)C(F)(F)F (stereo not shown),-7.56%
